{"source": "paper PMC9911399", "about": "“Two distinct binding modes provide the RNA-binding protein RbFox with extraordinary sequence specificity”", "binders": {"B1": {"name": "AUUGAGG (DNA:RNA)", "RNA": "GGGAGACCGGAAUUCAGAUUGUCCAUUGAGGUUAAAUCCCGUCGUAGCCACCA", "DNA 1": "CAATCTGAATTCCGGTCTCCC", "DNA 2": "TGGTGGCTACGACGGGATT"}, "B2": {"name": "UGAGAAG (DNA:RNA)", "RNA": "B1 RNA with A25U, U26G, U27A, G30A", "DNA 1": "CAATCTGAATTCCGGTCTCCC", "DNA 2": "TGGTGGCTACGACGGGATT"}, "B3": {"name": "AGAUGAG (DNA:RNA)", "RNA": "B1 RNA with U26G, U27A, G28U, A29G, G30A", "DNA 1": "CAATCTGAATTCCGGTCTCCC", "DNA 2": "TGGTGGCTACGACGGGATT"}, "B4": {"name": "GCUGACG (DNA:RNA)", "RNA": "B1 RNA with A25G, U26C, G30C", "DNA 1": "CAATCTGAATTCCGGTCTCCC", "DNA 2": "TGGTGGCTACGACGGGATT"}, "B5": {"name": "GAUAUUC (DNA:RNA)", "RNA": "B1 RNA with A25G, U26A, G28A, A29U, G30U, G31C", "DNA 1": "CAATCTGAATTCCGGTCTCCC", "DNA 2": "TGGTGGCTACGACGGGATT"}, "B6": {"name": "CCAUGAA (DNA:RNA)", "RNA": "GGGAGACCGGAAUUCAGAUUGUCCCCAUGAAUUAAAUCCCGUCGUAGCCACCA", "DNA 1": "CAATCTGAATTCCGGTCTCCC", "DNA 2": "TGGTGGCTACGACGGGATT"}, "B7": {"name": "GAGGAGA (DNA:RNA)", "RNA": "B1 RNA with A25G, U26A, U27G, G31A", "DNA 1": "CAATCTGAATTCCGGTCTCCC", "DNA 2": "TGGTGGCTACGACGGGATT"}, "B8": {"name": "GGUCGAA (DNA:RNA)", "RNA": "B6 RNA with C25G, C26G, A27U, U28C", "DNA 1": "CAATCTGAATTCCGGTCTCCC", "DNA 2": "TGGTGGCTACGACGGGATT"}, "B9": {"name": "GAGGCUA (DNA:RNA)", "RNA": "B1 RNA with A25G, U26A, U27G, A29C, G30U, G31A", "DNA 1": "CAATCTGAATTCCGGTCTCCC", "DNA 2": "TGGTGGCTACGACGGGATT"}, "B10": {"name": "GCGAGCA (DNA:RNA)", "RNA": "B6 RNA with C25G, A27G, U28A, A30C", "DNA 1": "CAATCTGAATTCCGGTCTCCC", "DNA 2": "TGGTGGCTACGACGGGATT"}, "B11": {"name": "AGCAUAC (DNA:RNA)", "RNA": "B1 RNA with U26G, U27C, G28A, A29U, G30A, G31C", "DNA 1": "CAATCTGAATTCCGGTCTCCC", "DNA 2": "TGGTGGCTACGACGGGATT"}, "B12": {"name": "GCGUCGA (DNA:RNA)", "RNA": "B6 RNA with C25G, A27G, G29C, A30G", "DNA 1": "CAATCTGAATTCCGGTCTCCC", "DNA 2": "TGGTGGCTACGACGGGATT"}, "B13": {"name": "CGCACUU (DNA:RNA)", "RNA": "B6 RNA with C26G, A27C, U28A, G29C, A30U, A31U", "DNA 1": "CAATCTGAATTCCGGTCTCCC", "DNA 2": "TGGTGGCTACGACGGGATT"}, "B14": {"name": "GUAAUCG (DNA:RNA)", "RNA": "B1 RNA with A25G, U27A, G28A, A29U, G30C", "DNA 1": "CAATCTGAATTCCGGTCTCCC", "DNA 2": "TGGTGGCTACGACGGGATT"}, "B15": {"name": "GACUUUC (DNA:RNA)", "RNA": "B6 RNA with C25G, C26A, A27C, G29U, A30U, A31C", "DNA 1": "CAATCTGAATTCCGGTCTCCC", "DNA 2": "TGGTGGCTACGACGGGATT"}, "B16": {"name": "CGACAGU (DNA:RNA)", "RNA": "B1 RNA with A25C, U26G, U27A, G28C, G31U", "DNA 1": "CAATCTGAATTCCGGTCTCCC", "DNA 2": "TGGTGGCTACGACGGGATT"}, "B17": {"name": "GCGAGUA (DNA:RNA)", "RNA": "B6 RNA with C25G, A27G, U28A, A30U", "DNA 1": "CAATCTGAATTCCGGTCTCCC", "DNA 2": "TGGTGGCTACGACGGGATT"}, "B18": {"name": "CUAUCGC (DNA:RNA)", "RNA": "B6 RNA with C26U, G29C, A30G, A31C", "DNA 1": "CAATCTGAATTCCGGTCTCCC", "DNA 2": "TGGTGGCTACGACGGGATT"}, "B19": {"name": "GAGCAGU (DNA:RNA)", "RNA": "B1 RNA with A25G, U26A, U27G, G28C, G31U", "DNA 1": "CAATCTGAATTCCGGTCTCCC", "DNA 2": "TGGTGGCTACGACGGGATT"}, "B20": {"name": "UGGCAGG (DNA:RNA)", "RNA": "B1 RNA with A25U, U26G, U27G, G28C", "DNA 1": "CAATCTGAATTCCGGTCTCCC", "DNA 2": "TGGTGGCTACGACGGGATT"}, "B21": {"name": "CUCCCAG (DNA:RNA)", "RNA": "B1 RNA with A25C, U27C, G28C, A29C, G30A", "DNA 1": "CAATCTGAATTCCGGTCTCCC", "DNA 2": "TGGTGGCTACGACGGGATT"}, "B22": {"name": "UAGAUCG (DNA:RNA)", "RNA": "B1 RNA with A25U, U26A, U27G, G28A, A29U, G30C", "DNA 1": "CAATCTGAATTCCGGTCTCCC", "DNA 2": "TGGTGGCTACGACGGGATT"}, "B23": {"name": "AUGAUAG (DNA:RNA)", "RNA": "B1 RNA with U27G, G28A, A29U, G30A", "DNA 1": "CAATCTGAATTCCGGTCTCCC", "DNA 2": "TGGTGGCTACGACGGGATT"}, "B24": {"name": "GUGUAGG (DNA:RNA)", "RNA": "B1 RNA with A25G, U27G, G28U", "DNA 1": "CAATCTGAATTCCGGTCTCCC", "DNA 2": "TGGTGGCTACGACGGGATT"}, "B25": {"name": "UGGUAUG (DNA:RNA)", "RNA": "B1 RNA with A25U, U26G, U27G, G28U, G30U", "DNA 1": "CAATCTGAATTCCGGTCTCCC", "DNA 2": "TGGTGGCTACGACGGGATT"}, "B26": {"name": "UUCCUCG (DNA:RNA)", "RNA": "B1 RNA with A25U, U27C, G28C, A29U, G30C", "DNA 1": "CAATCTGAATTCCGGTCTCCC", "DNA 2": "TGGTGGCTACGACGGGATT"}, "B27": {"name": "ACGCUGA (DNA:RNA)", "RNA": "B1 RNA with U26C, U27G, G28C, A29U, G31A", "DNA 1": "CAATCTGAATTCCGGTCTCCC", "DNA 2": "TGGTGGCTACGACGGGATT"}, "B28": {"name": "ACUCUUG (DNA:RNA)", "RNA": "B1 RNA with U26C, G28C, A29U, G30U", "DNA 1": "CAATCTGAATTCCGGTCTCCC", "DNA 2": "TGGTGGCTACGACGGGATT"}, "B29": {"name": "AUCCUCU (DNA:RNA)", "RNA": "B1 RNA with U27C, G28C, A29U, G30C, G31U", "DNA 1": "CAATCTGAATTCCGGTCTCCC", "DNA 2": "TGGTGGCTACGACGGGATT"}, "B30": {"name": "AAUUGCU (DNA:RNA)", "RNA": "B1 RNA with U26A, G28U, A29G, G30C, G31U", "DNA 1": "CAATCTGAATTCCGGTCTCCC", "DNA 2": "TGGTGGCTACGACGGGATT"}, "B31": {"name": "CGAGGAG (DNA:RNA)", "RNA": "B6 RNA with C26G, U28G, A31G", "DNA 1": "CAATCTGAATTCCGGTCTCCC", "DNA 2": "TGGTGGCTACGACGGGATT"}}, "note": "Numbering of substitutions follows the chain as printed; changes in the protein carry UniProt numbers. The list shows a part of the results."}
{"target": "T1, RBFOX1 RRM RbFoxmut (Fox-RRM*) (Homo sapiens, UniProt Q9NWB1 109-208, R118D;E147R;N151S;E152T)", "T1 sequence": "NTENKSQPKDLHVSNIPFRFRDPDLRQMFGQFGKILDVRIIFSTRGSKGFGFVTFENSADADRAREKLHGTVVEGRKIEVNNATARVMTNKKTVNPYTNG", "assay": "EMSA; HiTS-Eq, 1 nM pool, 10 min; buffer printed only for the single-RNA assays: 10 mM Tris pH 7.5, 150 mM NaCl, 3.4 mM EDTA, 0.001% NP-40, 30 C", "settings": "tags: His6 N-terminal (pET28a); label: 5' 32P", "outline": "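Purified wild-type or mutant RbFox RRM at increasing concentrations was equilibrated with 1 nM of 5′-radiolabelled RNA carrying 7 randomized nucleotides for 10 min in 50 µL. Unbound RNA was separated by 8% native PAGE and sequenced. Relative association constants came from read-count changes of each RNA species compared with the control reaction, normalised to the cognate motif.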"}
{"binder": "B1", "binding signal": "0.0811 KA relative to UGCAUGU"}
{"binder": "B2", "binding signal": "0.096 KA relative to UGCAUGU"}
{"binder": "B3", "binding signal": "0.134 KA relative to UGCAUGU"}
{"binder": "B4", "binding signal": "0.0868 KA relative to UGCAUGU"}
{"binder": "B5", "binding signal": "0.0777 KA relative to UGCAUGU"}
{"binder": "B6", "binding signal": "0.152 KA relative to UGCAUGU"}
{"binder": "B7", "binding signal": "0.0599 KA relative to UGCAUGU"}
{"binder": "B8", "binding signal": "0.108 KA relative to UGCAUGU"}
{"binder": "B9", "binding signal": "0.1 KA relative to UGCAUGU"}
{"binder": "B10", "binding signal": "0.148 KA relative to UGCAUGU"}
{"binder": "B11", "binding signal": "0.109 KA relative to UGCAUGU"}
{"binder": "B12", "binding signal": "0.104 KA relative to UGCAUGU"}
{"binder": "B13", "binding signal": "0.0892 KA relative to UGCAUGU"}
{"binder": "B14", "binding signal": "0.0982 KA relative to UGCAUGU"}
{"binder": "B15", "binding signal": "0.0357 KA relative to UGCAUGU"}
{"binder": "B16", "binding signal": "0.06 KA relative to UGCAUGU"}
{"binder": "B17", "binding signal": "0.153 KA relative to UGCAUGU"}
{"binder": "B18", "binding signal": "0.0843 KA relative to UGCAUGU"}
{"binder": "B19", "binding signal": "0.0808 KA relative to UGCAUGU"}
{"binder": "B20", "binding signal": "0.109 KA relative to UGCAUGU"}
{"binder": "B21", "binding signal": "0.111 KA relative to UGCAUGU"}
{"binder": "B22", "binding signal": "0.0938 KA relative to UGCAUGU"}
{"binder": "B23", "binding signal": "0.154 KA relative to UGCAUGU"}
{"binder": "B24", "binding signal": "0.111 KA relative to UGCAUGU"}
{"binder": "B25", "binding signal": "1.27 KA relative to UGCAUGU"}
{"binder": "B26", "binding signal": "0.0898 KA relative to UGCAUGU"}
{"binder": "B27", "binding signal": "0.102 KA relative to UGCAUGU"}
{"binder": "B28", "binding signal": "0.1 KA relative to UGCAUGU"}
{"binder": "B29", "binding signal": "0.0595 KA relative to UGCAUGU"}
{"binder": "B30", "binding signal": "0.0992 KA relative to UGCAUGU"}
{"binder": "B31", "binding signal": "0.125 KA relative to UGCAUGU"}
